# The other results are listed elsewhere or left out. Values were computed here from the reads of four pooled replicates and scatter widely.
# Molecular target: T1, Pho4 (S. cerevisiae) (UniProt P07270)
# T1 sequence: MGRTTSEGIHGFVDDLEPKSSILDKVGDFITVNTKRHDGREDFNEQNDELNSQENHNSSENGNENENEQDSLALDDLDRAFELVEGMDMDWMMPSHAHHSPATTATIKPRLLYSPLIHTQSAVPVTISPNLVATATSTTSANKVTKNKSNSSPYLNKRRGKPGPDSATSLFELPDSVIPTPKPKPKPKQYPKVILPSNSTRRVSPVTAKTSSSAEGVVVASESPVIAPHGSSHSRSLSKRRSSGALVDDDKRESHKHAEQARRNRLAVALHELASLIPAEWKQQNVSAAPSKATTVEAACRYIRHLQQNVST
# Assay: relative binding free energy (BET-seq); higher = weaker binding
# Conditions: reference: library average
row,Sequence,relative binding free energy
1,GGTATCACGTGCGTGT,0 kcal/mol
2,TAGTACACGTGGTATG,-0.1 kcal/mol
3,TTTTTCACGTGCTGGG,0.26 kcal/mol
4,AGATACACGTGCAGTG,0.11 kcal/mol
5,ATGGTCACGTGTGGCA,0.22 kcal/mol
6,ATGGACACGTGTTTCG,-0.06 kcal/mol
7,TACGTCACGTGGTGCG,-0.1 kcal/mol
8,TTTGACACGTGTTGTT,0.03 kcal/mol
9,TGTTGCACGTGTCAGT,0.06 kcal/mol
10,AGAGGCACGTGTGCGA,-0.18 kcal/mol
11,TTAAGCACGTGTAAAG,-0.05 kcal/mol
12,GGGTTCACGTGCAGGT,0.28 kcal/mol
13,GGTGACACGTGTTGGT,0.18 kcal/mol
14,GTGTACACGTGGAATT,0.28 kcal/mol
15,GAGGACACGTGAGGTT,0.21 kcal/mol
16,TTCGGCACGTGCGTAG,-0.1 kcal/mol
17,GGTAGCACGTGGCAGA,0.02 kcal/mol
18,GTATACACGTGAAGAT,0.44 kcal/mol
19,TTAAGCACGTGTGCCG,0.01 kcal/mol
20,TGATGCACGTGTTTAA,-0.03 kcal/mol
21,TTAAACACGTGTGCGG,-0.08 kcal/mol
22,GTAACCACGTGATTGT,0.19 kcal/mol
23,GTTGTCACGTGGTCCG,0.02 kcal/mol
24,GGATACACGTGGGAGG,0.02 kcal/mol
25,TGGGTCACGTGCTCGT,0.18 kcal/mol
26,GTGTCCACGTGAGTAT,0.34 kcal/mol

row,Sequence,relative binding free energy
1,TAATGCACGTGTAGGC,0.05 kcal/mol
2,GAGTTCACGTGAGGAA,0.43 kcal/mol
3,TTTGCCACGTGAGTGG,0.36 kcal/mol
4,ATTTACACGTGTTTGA,0.15 kcal/mol
5,GAATTCACGTGCGGTT,0.23 kcal/mol
6,TGGTGCACGTGCTGGG,-0.03 kcal/mol
7,GGTGTCACGTGGTTCG,0.09 kcal/mol
8,AAGCGCACGTGGGTGA,-0.27 kcal/mol
9,GACAGCACGTGGGGTT,-0.18 kcal/mol
10,ATAAGCACGTGTGGGT,-0.14 kcal/mol
11,TTAACCACGTGTTGTT,-0.04 kcal/mol
12,ATGTTCACGTGTAAGA,0.46 kcal/mol
13,ATTCTCACGTGGTGGT,0.13 kcal/mol
14,GAAGTCACGTGTTAGT,0.15 kcal/mol
15,TTCTGCACGTGGGGAG,-0.16 kcal/mol
16,GTGCTCACGTGAGATG,0.33 kcal/mol
17,GATTGCACGTGGGTTC,-0.02 kcal/mol
18,GTGGTCACGTGTATGT,0.22 kcal/mol
19,ACTGGCACGTGGTGGT,-0.16 kcal/mol
20,GGTCTCACGTGACGGT,0.46 kcal/mol
21,GGGTGCACGTGTGCTA,0.03 kcal/mol
22,TTTTGCACGTGATGCA,0.11 kcal/mol
23,AATGTCACGTGCGATG,0.07 kcal/mol
24,TTCAGCACGTGAGAGG,0.09 kcal/mol
25,TTATACACGTGCGGTG,0.05 kcal/mol
26,TATTGCACGTGTCTGC,0.12 kcal/mol

row,Sequence,relative binding free energy
1,AGTTGCACGTGGAATG,0.06 kcal/mol
2,TCAGGCACGTGGGGTC,-0.26 kcal/mol
3,ATTTTCACGTGGGATC,0.25 kcal/mol
4,TGTTACACGTGCTTGA,0.05 kcal/mol
5,TGTGGCACGTGCTATG,-0.24 kcal/mol
6,GTGAACACGTGTGCGT,-0.05 kcal/mol
7,TCATTCACGTGGTATG,0.2 kcal/mol
8,GAATACACGTGATGGT,0.17 kcal/mol
9,GGGCTCACGTGTAGGC,0.36 kcal/mol
10,CGGCACACGTGTGGGG,0.1 kcal/mol
11,GCGTACACGTGAAGGG,0.43 kcal/mol
12,CCGGGCACGTGGTCGG,0.07 kcal/mol
13,CGATGCACGTGGGTCG,-0.04 kcal/mol
14,ATTAGCACGTGATGGC,-0.04 kcal/mol
15,TAGGACACGTGGGGGG,-0.09 kcal/mol
16,AAAGTCACGTGTAATT,0.35 kcal/mol
17,TTATGCACGTGTCGAT,-0.05 kcal/mol
18,GTGTCCACGTGGGATG,-0.12 kcal/mol
19,TGGGTCACGTGACTCT,0.35 kcal/mol
20,AGTCTCACGTGGTGGA,0.19 kcal/mol
21,TTTTTCACGTGCAAAT,0.19 kcal/mol
22,TGGACCACGTGTCGGG,0 kcal/mol
23,ATCAACACGTGTGGTT,0.05 kcal/mol
24,TCGGGCACGTGTAGCG,-0.05 kcal/mol
25,TCAGTCACGTGAGGTG,0.33 kcal/mol
26,CATTTCACGTGTGTGT,0.25 kcal/mol

row,Sequence,relative binding free energy
1,AGGTTCACGTGGATGT,0.35 kcal/mol
2,GTGTGCACGTGATATC,0.2 kcal/mol
3,GTACTCACGTGTGTGT,0.15 kcal/mol
4,ATAAACACGTGGGTTT,-0.04 kcal/mol
5,AGGCGCACGTGGGGTT,-0.2 kcal/mol
6,TCTTGCACGTGCTGTT,-0.08 kcal/mol
7,ATTCTCACGTGTATAG,0.21 kcal/mol
8,TTATCCACGTGGGTAT,-0.06 kcal/mol
9,TGTCACACGTGCGTGG,-0.08 kcal/mol
10,AGCTTCACGTGGAGTG,0.05 kcal/mol
11,AAAGGCACGTGTGGAG,0 kcal/mol
12,TCCGGCACGTGTTGGA,0.09 kcal/mol
13,TTTCTCACGTGCGTGG,0.12 kcal/mol
14,ATTGACACGTGGGGGG,-0.27 kcal/mol
15,TCTTTCACGTGTTTTT,0.24 kcal/mol
16,TGTGACACGTGTGCTC,0.17 kcal/mol
17,TGGGGCACGTGGAGTG,-0.14 kcal/mol
18,AGTGCCACGTGTTGAA,0.03 kcal/mol
19,AGACGCACGTGGCGGG,-0.24 kcal/mol
20,ACGGTCACGTGTCTGT,0.03 kcal/mol
21,ATCTTCACGTGGTGTC,0.17 kcal/mol
22,CTTGGCACGTGATATT,-0.01 kcal/mol
23,ATGAGCACGTGCTGGG,-0.09 kcal/mol
24,AAGGGCACGTGTGTCA,-0.09 kcal/mol
25,ATGGTCACGTGTGGGT,0.15 kcal/mol
26,AGTTGCACGTGGATGC,-0.06 kcal/mol

row,Sequence,relative binding free energy
1,CGTTACACGTGTGGCT,0.18 kcal/mol
2,AGGGGCACGTGCGAGT,-0.15 kcal/mol
3,ATGGCCACGTGGTTGC,-0.05 kcal/mol
4,TTGGTCACGTGAATGA,0.42 kcal/mol
5,ATGAGCACGTGTAAAG,0 kcal/mol
6,CAGTGCACGTGGGGAT,-0.34 kcal/mol
7,TTAGGCACGTGGCTTG,-0.03 kcal/mol
8,AGTTTCACGTGTTTAT,0.26 kcal/mol
9,GGTTCCACGTGTGGGG,0.2 kcal/mol
10,GTGGTCACGTGATAAT,0.26 kcal/mol
11,CCTGTCACGTGTGGTT,0.06 kcal/mol
12,GTCGTCACGTGCGAGG,0.02 kcal/mol
13,ATGCCCACGTGTTTGG,-0.04 kcal/mol
14,GCGTTCACGTGGGTTA,0.06 kcal/mol
15,CTTGCCACGTGTAGGG,-0.12 kcal/mol
16,TTAAGCACGTGTTAGG,-0.14 kcal/mol
17,TTATACACGTGGCTTT,-0.04 kcal/mol
18,TTTGACACGTGGCTTT,-0.03 kcal/mol
19,TGGTACACGTGTCTAG,0.02 kcal/mol
20,TTATTCACGTGGGGTT,0.01 kcal/mol
21,CGTGGCACGTGCGCTG,-0.26 kcal/mol
22,GTACGCACGTGGGGTA,-0.37 kcal/mol
23,AAATGCACGTGAGGGC,0.14 kcal/mol
24,ATGATCACGTGGGTTA,0.01 kcal/mol
25,ATGGACACGTGGGCTG,0 kcal/mol
26,ATTTGCACGTGGTGAT,0.06 kcal/mol

row,Sequence,relative binding free energy
1,GGTCGCACGTGGGAGT,-0.17 kcal/mol
2,TGGGGCACGTGGCTGA,-0.12 kcal/mol
3,AGTATCACGTGGGATG,0.04 kcal/mol
4,AGGTGCACGTGATCTT,0.01 kcal/mol
5,TTTGTCACGTGGGACA,-0.04 kcal/mol
6,TCATACACGTGTAGTG,0.06 kcal/mol
7,GCTCGCACGTGTGTTG,0.08 kcal/mol
8,TTGCTCACGTGTTGTA,0.23 kcal/mol
9,ATGGGCACGTGGCGGT,-0.24 kcal/mol
10,AGCTGCACGTGCGTTG,-0.09 kcal/mol
11,TGTGGCACGTGGTAGA,-0.28 kcal/mol
12,GGGTACACGTGGTCGT,0.07 kcal/mol
13,GATAGCACGTGGTCTT,-0.02 kcal/mol
14,TTTAGCACGTGTAAAG,0.11 kcal/mol
15,ATGTTCACGTGGCTGT,0.2 kcal/mol
16,TTTAACACGTGTAATA,-0.02 kcal/mol
17,TATATCACGTGTTCGT,0.16 kcal/mol
18,AATATCACGTGGAGGG,-0.01 kcal/mol
19,GTGTCCACGTGGGTCT,-0.12 kcal/mol
20,TTATACACGTGAGTAT,0.28 kcal/mol
21,TGTCGCACGTGCGGAT,-0.02 kcal/mol
22,TCTAGCACGTGAGTGA,0.12 kcal/mol
23,GGAAACACGTGTGTGA,0 kcal/mol
24,GGATGCACGTGTATTC,0.13 kcal/mol
25,GTATGCACGTGGTCGC,-0.05 kcal/mol
26,GGGGGCACGTGTAACT,0.12 kcal/mol

row,Sequence,relative binding free energy
1,TGAGGCACGTGACTGG,0.03 kcal/mol
2,GTGGGCACGTGAAATG,0.1 kcal/mol
3,CTAGGCACGTGTATAT,-0.15 kcal/mol
4,AGGCTCACGTGTATTT,0.17 kcal/mol
5,CTGAGCACGTGGGTGT,-0.29 kcal/mol
6,GGTTCCACGTGGGGCT,-0.12 kcal/mol
7,GGCGGCACGTGGTGCG,-0.16 kcal/mol
8,CATGGCACGTGGGCAG,-0.18 kcal/mol
9,GTCTACACGTGTGTTG,0.14 kcal/mol
10,CGTCACACGTGAGGGG,0.31 kcal/mol
11,AGTGGCACGTGTACGG,-0.1 kcal/mol
12,TTCATCACGTGGGGGG,0.14 kcal/mol
13,TATTTCACGTGTATGT,0.25 kcal/mol
14,AAATACACGTGGGGTG,-0.07 kcal/mol
15,TGCAGCACGTGGGGTG,-0.24 kcal/mol
16,GCAGGCACGTGGAGTA,-0.11 kcal/mol
17,AGAGACACGTGAGTGG,0.16 kcal/mol
18,ACGATCACGTGAGTGG,0.21 kcal/mol
19,GAAATCACGTGTATTT,0.21 kcal/mol
20,GGCATCACGTGATTTG,0.35 kcal/mol
21,AATAGCACGTGCATGG,-0.1 kcal/mol
22,CGATGCACGTGGGGTG,-0.2 kcal/mol
23,TTTCGCACGTGTTGGT,0.02 kcal/mol
24,TTACGCACGTGGATTT,0.09 kcal/mol
25,GGTACCACGTGTGGAG,0.09 kcal/mol
26,ATGATCACGTGAGTGT,0.12 kcal/mol

row,Sequence,relative binding free energy
1,TGGTTCACGTGGGGAT,0.25 kcal/mol
2,ATCTGCACGTGGTATT,-0.04 kcal/mol
3,CGCGTCACGTGTGGGT,-0.04 kcal/mol
4,CTCGCCACGTGTGGGT,-0.02 kcal/mol
5,ATTCGCACGTGGGTTG,-0.25 kcal/mol
6,GATGGCACGTGCGGGA,-0.08 kcal/mol
7,AATCTCACGTGTTTTT,0.13 kcal/mol
8,TGGTCCACGTGCGGGG,-0.05 kcal/mol
9,TGGTGCACGTGGGTAA,-0.15 kcal/mol
10,TGATGCACGTGGTCAG,-0.02 kcal/mol
11,GGATGCACGTGTCTGT,0.01 kcal/mol
12,GTTTACACGTGAGCTT,0.33 kcal/mol
13,TGTATCACGTGGTAGC,0.16 kcal/mol
14,ACGATCACGTGGGGGA,-0.04 kcal/mol
15,GGTGTCACGTGTTTTG,0.03 kcal/mol
16,TGTGACACGTGGGACA,-0.06 kcal/mol
17,GTGTGCACGTGGTGGC,-0.13 kcal/mol
18,CAGGGCACGTGGATGA,-0.06 kcal/mol
19,ATGTCCACGTGTGTAT,-0.13 kcal/mol
20,ATGGTCACGTGTGCGC,0.1 kcal/mol
21,GTATTCACGTGTGCGG,0.18 kcal/mol
22,TTCATCACGTGGAGCG,0.17 kcal/mol
23,TTTATCACGTGTACTT,0.19 kcal/mol
24,TTCGCCACGTGGTGTG,-0.28 kcal/mol
25,GAGGGCACGTGAATGA,0.2 kcal/mol
26,GAGTGCACGTGCTGGT,-0.02 kcal/mol

row,Sequence,relative binding free energy
1,AAGGTCACGTGTATCG,0.08 kcal/mol
2,ATTGACACGTGTTTAG,0 kcal/mol
3,GGCCTCACGTGAGGGT,0.31 kcal/mol
4,CAGGCCACGTGATGTG,0.1 kcal/mol
5,GTTGTCACGTGAGTAC,0.38 kcal/mol
6,ATGATCACGTGTAGGG,0.2 kcal/mol
7,GGGCTCACGTGTTAAT,0.31 kcal/mol
8,CTAAGCACGTGTTGTT,-0.09 kcal/mol
9,AGCTGCACGTGTTTAT,-0.04 kcal/mol
10,CGTGTCACGTGGTCGG,0.05 kcal/mol
11,TTAGCCACGTGTGAGG,-0.02 kcal/mol
12,GGTGCCACGTGATTTA,0.22 kcal/mol
13,AGGCTCACGTGAGAGT,0.46 kcal/mol
14,TCTTGCACGTGAAGAG,0.27 kcal/mol
15,AGTTTCACGTGCTATG,0.17 kcal/mol
16,TCTATCACGTGTGGGA,0.05 kcal/mol
17,TGTTGCACGTGTGAAA,0.12 kcal/mol
18,TGATACACGTGGTGCA,-0.03 kcal/mol
19,AGGAACACGTGGTTAA,0.06 kcal/mol
20,GCTGTCACGTGGGATT,0.1 kcal/mol
21,AGTAGCACGTGCGTTG,-0.13 kcal/mol
22,AGGCGCACGTGGCTGG,-0.23 kcal/mol

# From the BET-seq Pho4 binding data (Le et al. 2018)
